Measurements from PubChem BioAssay AID686970 (National Center for Advancing Translational Sciences (NCATS), 2013).
“And” between values parts separate entries of the source, which are not always exact repeats. Equal values may be shown once. About 6,000 (1.7%) of roughly 360,000 compounds were called active. The shares of active, inactive and inconclusive entries below differ from those in the screen. The call rests on the fitted dose curve; in most records, active means well fitted cell-killing curve with a large enough effect; inconclusive means small, poorly fitted or top-dose-only effect, or effect the other way; inactive means flat fitted curve, though single readings scatter. Where the call is inconclusive, the potency comes from a doubtful curve fit.

experiment: qHTS for induction of synthetic lethality in tumor cells producing 2HG: qHTS for the HT-1080-NT fibrosarcoma cell line; conditions: HT-1080-NT fibrosarcoma viability, CellTiter-Glo ATP luminescence, 48 h; activity, negative = less viability: at 46.1 µM (top of the series) unless noted;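 further: NT is the 2HG producing partner of a matched IDH1 knockdown line; nearly all actives have a fitted effect of over 55% in size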;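 on activity, negative = less viability: 0% = DMSO-treated cells and -100% = media-only wells without cells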
How it was run: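 A 48-hour cytotoxicity screen used HT-1080-NT cells plated 2 hours before compound delivery. ATP-based CellTiter-Glo luminescence measured viability, normalized to DMSO and no-cell controls.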
Potency means the concentration at half of the fitted maximal effect; tags describe the fitted curve by direction and shape.

Compound | Potency | activity, negative = less viability
CCOC(=O)[C@]12CCC=C1N(Cc1ccc(Cl)cc1Cl)C(=O)[C@H](CC(=O)NCc1ccc(OC)c(OC)c1)C2 | inconclusive: 20.6 µM [cytotoxic, single point] | 
O=C1NN=C(c2ccc(Cl)cc2)CC1c1cccc(Br)c1 (stereo not drawn) | inconclusive: 29.1 µM [cytotoxic, single point] | 
CCOc1ccc(NC(=O)c2nsc(Cl)c2Cl)cc1 | inactive | 
CC(CN1CCN(CCOCCO)CC1)CN1c2ccccc2Sc2ccc(Cl)cc21 (stereo not drawn) | active: 23.1 µM | 
CCOc1ccc(-c2cc3nc(C4CCN(C(=O)OC(C)(C)C)CC4)c(C(=O)O)cn3n2)cc1 | inconclusive: 20 µM [cytotoxic, single point] | 
CCOC(=S)SCC(=O)Nc1nc(-c2ccccc2)cs1 | inconclusive: 18.4 µM [cytotoxic, single point] | 
COc1ccc(C(=O)C(CN2CCOCC2)c2ccccc2)cc1 (stereo not drawn) | active: 7.08 µM | 
C/C(CC(=O)Nc1ccc(Cl)c(C(F)(F)F)c1)=N\NC(=O)c1cnccn1 | inconclusive: 23.1 µM [cytotoxic, partial curve] | 
C#Cc1ccc(NC(=O)C2(C)CCN2C(=O)c2cc(C)n(C)n2)cc1 (stereo not drawn) | inactive | 
N/C(CSc1ncccc1C(F)(F)F)=N\O | inactive | 
COc1ccccc1/C=C\C=N\n1c(-c2ccc(Cl)cc2)n[nH]c1=S | inactive | 
OCCNc1nc(-c2ccccc2)c2cc(Cl)ccc2n1 | inconclusive: 8.2 µM [cytotoxic, partial curve] | 
CCOc1cc(S(=O)(=O)NCc2ccccc2)c(OCC)cc1-n1cnnn1 | inactive | 
CC(=O)Nc1ccc(S(=O)(=O)NNC(=O)NC23CC4CC(CC(C4)C2)C3)cc1 | inactive | 
O=C(CC1C[C@H](C(=O)N2CCCCC2)[C@@]2(CCc3ccccc3)c3[nH]c4ccccc4c3CCN2C1=O)NCc1ccco1 (stereo partly drawn) | inactive | 
CCOC(=O)c1c(C)[nH]c(C(=O)OC(C)C(=O)NC2CCCCC2C)c1C (stereo not drawn) | inconclusive: 16.4 µM [cytotoxic, single point] | 
COc1ccc(C(=O)N2CCC(C)(C(=O)NS(=O)(=O)C3CC3)C2)cc1F (stereo not drawn) | inactive | 
Cc1cc(Nc2ccccc2F)n2ncnc2n1 | inactive | 
Nc1ncnc2nc[nH]c12 | inconclusive: 20.6 µM [rising, partial curve] and inconclusive: 23.1 µM [rising, partial curve] | 
NC(=S)NN=Cc1nccc2c(C(F)(F)F)cccc12 | inconclusive: 0.291 µM [cytotoxic, full curve, poor fit] | 
N#Cc1ccccc1NC(=O)COC(=O)/C=C/c1cn(-c2ccccc2)nc1-c1ccc(Cl)cc1 | inactive | 
O=C(NCc1ccccc1)C(c1ccccc1F)n1c(=O)c(-c2cc3ccccc3[nH]2)nc2ccccc21 (stereo not drawn) | inconclusive: 20.6 µM [cytotoxic, single point] | 
CC(OC(=O)Cc1n[nH]c(=O)c2ccccc12)C(=O)N(C)c1ccccc1 (stereo not drawn) | inconclusive: 13 µM [cytotoxic, partial curve] | 
CCCCCCCCn1c(=O)c(C(=O)OC)c(N)c2ccccc21 | active: 20.6 µM | 
Cc1cc(C)c(C)c(S(=O)(=O)NCC(=O)Nc2ccc(F)cc2)c1C | inconclusive: 16.4 µM [cytotoxic, partial curve] | 

Compound | Potency | activity, negative = less viability
O=C(/C=C/c1c(F)cccc1Cl)c1ccc(O)cc1 | inconclusive: 29.1 µM [cytotoxic, single point] | 
O=C(Cc1ccccc1)NCCN1CCCC1 | inactive | 
COc1cccc(C(C(=O)NCc2ccccc2)N2CCN(c3cccc(C)c3C)CC2)c1OC (stereo not drawn) | inconclusive: 29.1 µM [cytotoxic, single point] | 
C[C@H]1CC[C@@]2(O[C@@H](CCO)C[C@H](O)[C@H]2O)O1 | inactive | 
COc1cc(/C=N/NC(N)=S)ccc1OC(=O)c1ccc(C)cc1 | inactive | 
Cc1c(CCC(=O)NCCCn2ccnc2)c(=O)oc2c(C)c3occ(C(C)(C)C)c3cc12 | inconclusive: 20.6 µM [cytotoxic, single point] | 
CCOC(=O)c1cnc(Nc2nc3ccccc3o2)nc1C | active: 2.82 µM | 
Cc1onc(-c2ccccc2)c1C(=O)N1CCCN2C(=O)c3ccccc3C21 (stereo not drawn) | inactive | 
CC(=O)Nc1cccc(-c2cc(NC=O)c3ncc(-c4ccc(F)c(Cl)c4)n3c2)c1 | active: 18.4 µM | 
O=C(Nc1ccc(Oc2ccccc2)nc1)C1CCN(Cc2ccccc2)CC1 | inconclusive: 2.06 µM [cytotoxic, partial curve, poor fit] | 
CCN(CC)CCCN(C(=O)c1ccc(OC)cc1)c1nc(-c2ccc(OC)cc2)cs1 | active: 23.1 µM | 
O=C1c2ccccc2-c2onc3c(N4CCN(CCO)CC4)cc(N4CCN(C(=O)c5ccco5)CC4)c1c23 | inconclusive: 29.1 µM [cytotoxic, single point] | 
C/C(N)=C(/C#N)C(=O)COC(=O)C1CCC(C(C)(C)C)CC1 (stereo not drawn) | inconclusive: 11.2 µM [cytotoxic, partial curve] | 
O=C(Nc1ccc(Cl)c(C(F)(F)F)c1)C1Cc2c(-c3ccc4c(c3)OCO4)ccnc2O1 (stereo not drawn) |  | inconclusive: -55.7%
CN1CCN(C(=O)c2cccc(COc3cc(Cl)ccc3Cl)c2)CC1 | inconclusive: 12.6 µM [cytotoxic, single point] | 
CCc1nn2cc(C(=O)c3cc(Cl)ccc3O)cnc2c1-c1ccc(F)cc1 | inconclusive: 29.1 µM [cytotoxic, single point] | 
O=C(Nc1ccc(F)cc1F)c1cc(=O)n(-c2ccccc2)c(=O)[nH]1 | inactive | 
CCOC(=O)C1(Cc2ccccc2C)CCCN(C(=O)c2ccoc2)C1 (stereo not drawn) | inactive | 
O=C(Nc1nccs1)C1CCN(S(=O)(=O)c2c(Cl)cccc2Cl)CC1 | inactive | 
CCCN(CC(=O)Nc1ccccc1C)C(=O)c1cccc(-n2cnnn2)c1 | inactive | 
NC(c1csc(Nc2ccc(C(F)(F)F)cn2)n1)C1CCCCC1 (stereo not drawn) | inconclusive: 29.1 µM [cytotoxic, single point] | 
O=C(CNC(=O)c1ccco1)N=Nc1c(O)n(CCc2ccccc2)c2ccccc12 | active: 4.11 µM | 
COc1ccc2c(c1)CCc1sc(NC(=O)c3ccco3)nc1-2 | inactive | 
CN(Cc1ccccc1)CC(O)COc1ccc(CNCCOc2cccnc2)cc1 (stereo not drawn) | inconclusive: 5.17 µM [cytotoxic, partial curve, poor fit] | 
Cc1cnc(NC(=O)c2sc(Nc3ccccc3)nc2N)o1 | inactive | 

Compound | Potency | activity, negative = less viability
CC(=O)N1CCC(=NNc2ccc(S(N)(=O)=O)cc2[N+](=O)[O-])CC1 | inconclusive: 8.2 µM [cytotoxic, partial curve] | 
O=C(NCc1ccco1)c1cccc(-c2ccc3nccn3c2)c1 | inactive | 
Cc1cnc(CNC(=O)CC2C(=O)NCCN2Cc2ccccc2F)cn1 (stereo not drawn) | inconclusive: 16.4 µM [rising, single point] | 
CCN1CCN(c2cc(C)c3cc(NC(=O)CCC(=O)N4CCN(c5ccccc5)CC4)ccc3n2)CC1 | inconclusive: 18.4 µM [cytotoxic, single point] | 
COc1cc(OC)cc(-c2cc3cc4c(cc3cn2)OCO4)c1 | active: 0.92 µM | 
CCc1cc(Cl)c(OC)c(C(=O)NC[C@@H]2CCCN2CC)c1O | inconclusive: 20.6 µM [cytotoxic, single point] and inconclusive: 29.1 µM [cytotoxic, single point] | 
CC(C)c1cc(C(=O)NC2CCCc3c2cnn3-c2ccccc2F)no1 (stereo not drawn) | inconclusive: 11.6 µM [cytotoxic, partial curve] | 
COc1ccccc1N1CCN(S(=O)(=O)c2ccc(F)cc2)CC1 | inactive | 
Cc1cc(C)c2nc(N3CCCC(C(=O)N4CCC(C(N)=O)CC4)C3)sc2c1 (stereo not drawn) | inconclusive: 25.1 µM [cytotoxic, single point] | 
CCOc1ccc(NC(=S)Nc2ccc(C)c([N+](=O)[O-])c2)cc1 | inconclusive: 12.6 µM [cytotoxic, single point] | 
CNC(=O)C[C@H]1C(=O)N(Cc2ccccc2)C[C@@H]1C | inactive | 
O=C(Nc1nc(-c2ccc(Cl)s2)cs1)c1cccs1 | inconclusive: 35.5 µM [cytotoxic, single point] | 
Cc1ccccc1-n1sc2cc(F)ccc2c1=O | active: 18.4 µM | 
Cc1nc(NC(=O)c2ccccc2)sc1-c1csc(NCc2ccco2)n1 | inconclusive: 14.1 µM [cytotoxic, single point] | 
CCCCN(C(=O)CSCC(=O)Nc1ccc(OC)cc1)c1c(N)n(Cc2ccccc2)c(=O)[nH]c1=O | inactive | 
CC(NC(=O)COC(=O)/C=C/c1ccc2c(c1)OCO2)c1ccccc1 (stereo not drawn) | inactive | 
CC(=O)CC1c2cc(F)ccc2C=C(c2ccsc2)N1c1ccc(C#CC2(O)CCCCC2)cc1 (stereo not drawn) | inconclusive: 32.6 µM [cytotoxic, single point] | 
CN1CCN(S(=O)(=O)c2ccc(NC(=O)c3ccccc3Cl)cc2)CC1 | inactive | 
C/C(=N\NC(=S)NCc1ccccc1)c1ccccc1F | inactive | 
Cc1ccc(C)c(NC(=S)NC(NC(=O)Cc2ccccc2)C(Cl)(Cl)Cl)c1 (stereo not drawn) | inconclusive: 29.1 µM [cytotoxic, single point] | 
Cc1cccc(/C(N)=N/OC(=O)C23CC4CC(CC(C4)C2)C3)c1 | inconclusive: 29.1 µM [cytotoxic, single point] | 
COc1ccccc1Cn1c(=O)c2ccccc2n2c(Sc3ncnc4sccc34)nnc12 | inconclusive: 29.1 µM [cytotoxic, single point] | 
CC1(C(=O)Nc2cnc3ccccc3c2)CCN1Cc1ccccc1OC(F)F (stereo not drawn) | inconclusive: 14.6 µM [cytotoxic, single point] | 
